Experimental data taken from PubChem BioAssay AID1956 (SRMLSC, 2009).
The campaign covered roughly 220,000 compounds. About 10 (0.005%) were called active. This list was built around the results that the source calls inconclusive (neither active nor inactive); the mix of calls is not that of the screen. Cut-off read from the data, not from the text of the source: active = maximum fold increase above about 1.5; inconclusive = no clear call, values can overlap the other calls; inactive = below that; tested in PC3 cells.

Experiment: compounds boosting herpes simplex virus growth – fold increase, host cell viability (AID 1956)
Details: HSV replication augmentation in cells; at 25 µM unless noted
For `CCc1ccc(NC(=O)CS(=O)CC(=O)NC(C)CCc2ccco2)cc1` (configuration not stated), the maximum fold increase was “inconclusive”. For `CC(C)Oc1ccc2c(=O)c(-c3ccccc3)coc2c1`, the maximum fold increase was “inactive”. In the case of `CC1=C(C(=O)Nc2ccccc2Cl)C(c2ccc(N(C)C)cc2)NC(=O)N1` (configuration not stated), the maximum fold increase is reported as “inconclusive”. With `CCOC(=O)N1CC=C2C(C#N)=C(N)C(C#N)(C#N)[C@H](c3ccccc3OCC)[C@H]2C1` the maximum fold increase was “inconclusive”. For `COc1cc(CNc2ccc(O)cc2)cc(Br)c1OCc1ccccc1F`, the maximum fold increase was “inactive”. With `COc1cc(N2CCCC2)c(OC)cc1/C=C(/C#N)c1cccc(Br)c1` the maximum fold increase was “inconclusive”. For `OC(c1ccccc1)C1CN(Cc2ccccc2)CCC1(O)c1ccccc1` (configuration not stated), the maximum fold increase was “inactive”. For `CC(C)OC(=O)CN1C(=O)S/C(=C/c2ccc(N3CCCCC3)o2)C1=O`, the maximum fold increase was “inconclusive”. In the case of `O=C(CSCc1ccc(Cl)cc1)Nc1cccc(C(=O)Nc2ccccc2C(=O)O)c1`, the maximum fold increase is reported as “inactive”. With `CC(=O)N1c2ccc(Cl)cc2C2C=CCC2C1c1cccc2ccccc12` (configuration not stated) the maximum fold increase was “inactive”. With `CCCCN1C(=O)C2Cc3c([nH]c4ccccc34)CN2C1=S` (configuration not stated) the maximum fold increase was “inconclusive”. For `O=c1[nH]c2ccccc2nc1/C=C(\O)C(F)F`, the maximum fold increase was “inconclusive”. With `COc1ccc(C2C3=C(CC(C)(C)CC3=O)Nc3cc4c(cc32)OCO4)cc1` (configuration not stated) the maximum fold increase was “inconclusive”. In the case of `COc1ccc(-n2nnnc2SCC(=O)Nc2nnc(C)s2)cc1`, the maximum fold increase is reported as “inconclusive”. For `COc1cc2c3nnc(-c4ccc(F)cc4)c-3cn(Cc3ccc(C)cc3)c2cc1OC`, the maximum fold increase was “inconclusive”. In the case of `COc1cc(OC)c(-c2nc3ccccc3s2)cc1OC`, the maximum fold increase is reported as “inactive”. In the case of `COc1ccc(/C=N/Nc2nc(N3CCCCC3)nc(N3CCCCC3)n2)cc1[N+](=O)[O-]`, the maximum fold increase is reported as “inactive”. In the case of `O=C(c1cn(-c2ccccc2)nc1-c1ccccc1)n1nnc2ccccc21`, the maximum fold increase is reported as “inconclusive”. With `CC(C)OC(=O)c1cc(C(=O)c2cc(F)ccc2O)coc1=N` the maximum fold increase was “inactive”. For `COC(C(=O)Nc1ccc(F)cc1)c1ccccc1` (configuration not stated), the maximum fold increase was “inactive”. For `O=C(Nc1ccc(Cl)cc1)N1CCCC(Cn2cccc2)C1` (configuration not stated), the maximum fold increase was “inconclusive”. With `CCOC(=O)/C(C#N)=C/c1ccc(OCC(=O)Nc2ccccc2)c(OC)c1` the maximum fold increase was “inconclusive”. For `CN(CC(O)COc1ccccc1F)C1CCCCC1` (configuration not stated), the maximum fold increase was “inactive”. For `CCOc1cc(/C=C/c2cc(C(F)(F)F)[nH]c(=O)n2)ccc1O`, the maximum fold increase was “inconclusive”. With `COc1ccccc1N1C(=O)C2C(C(=O)c3ccccc3)=NN(c3ccc(C)cc3)C2C1=O` (configuration not stated) the maximum fold increase was “inconclusive”. In the case of `Cc1ccccc1C([O-])=Nc1ccc[n+](-c2nc3ccccc3nc2NS(=O)(=O)c2ccccc2)c1`, the maximum fold increase is reported as “inactive”. With `COc1cccc(-c2cc(C(=O)Nc3cc(C)on3)no2)c1` the maximum fold increase was “inactive”. For `CCOC(=O)c1c(-c2ccc(C)o2)csc1NC(=O)CN1CCCCC1`, the maximum fold increase was “inactive”. With `Cc1ccc(-c2nnc(CCC(=O)NCC3C4CC5CC(C4)CC3C5)o2)s1` (configuration not stated) the maximum fold increase was “inactive”. For `CCOc1ccccc1CN(Cc1ccco1)S(=O)(=O)c1ccc(-n2cnnn2)c(OC)c1`, the maximum fold increase was “inactive”. In the case of `O=C(C(=O)N1CC=C(c2ccccc2)CC1)c1c[nH]c2ccccc12`, the maximum fold increase is reported as “inconclusive”. In the case of `Cc1cc(OCCN2CCCCC2)nc2ccccc12`, the maximum fold increase is reported as “inactive”. With `CCOc1cccc(/C=C2/NC(=O)N(CC(=O)Nc3cccc(C)c3)C2=O)c1O` the maximum fold increase was “inconclusive”. For `CCOC(=O)c1c(C)[nH]c(C(=O)/C(C#N)=C/c2ccc(OC(F)F)c(OC)c2)c1C`, the maximum fold increase was “inconclusive”. For `CCN1CCCC(OC(=O)c2cc(-c3ccccc3Cl)nc3ccccc23)C1` (configuration not stated), the maximum fold increase was “inactive”. With `Cc1ccccc1Nc1cccc2nonc12` the maximum fold increase was “inconclusive”. With `COc1cc(/C=C2\SC(=S)N(C(Cc3ccccc3)C(=O)O)C2=O)ccc1O` (configuration not stated) the maximum fold increase was “inconclusive”. In the case of `O=C(NC1CCCC1)c1ccccc1OCc1ccccc1`, the maximum fold increase is reported as “inactive”. In the case of `Cc1ccc(Nc2nc(NCCCN3CCOCC3)nc(N)c2[N+](=O)[O-])cc1`, the maximum fold increase is reported as “inactive”. In the case of `COc1ccccc1-n1cc(C(=O)c2cc(Cl)ccc2O)cc(C#N)c1=O`, the maximum fold increase is reported as “inconclusive”. For `COc1cccc(NC(C)(C)c2nnnn2-c2c(C)cccc2C)c1`, the maximum fold increase was “inactive”. With `O=C(/C=C/c1ccc(F)cc1)NC(=S)NC1CCCCC1` the maximum fold increase was “inactive”. In the case of `CCOC(=O)NC(=O)CSc1nc2ccccc2[nH]1`, the maximum fold increase is reported as “inactive”. In the case of `CCOC(=O)c1c(NC(=O)CN2CCCc3ccccc32)sc(C)c1CC`, the maximum fold increase is reported as “inconclusive”. In the case of `Cc1cccc(COCC(Cc2ccccc2)N2CCN(C(=O)c3cccc(Cl)c3)CCC2=O)c1` (configuration not stated), the maximum fold increase is reported as “inactive”. For `CCOC(=S)SCC(=O)Nc1nc(C)c(C)s1`, the maximum fold increase was “inactive”. With `Cc1ccc(N=C2NC(=O)C(CC(=O)O)S2)cc1` (configuration not stated) the maximum fold increase was “inconclusive”. In the case of `Cc1sc2nc(COC(=O)c3cccc(S(=O)(=O)N(C)c4ccccc4)c3)[nH]c(=O)c2c1C`, the maximum fold increase is reported as “inconclusive”. With `CN(CC(=O)Nc1ccccc1Oc1ccccc1)Cc1ccccc1F` the maximum fold increase was “inconclusive”. In the case of `CCOC(=O)C1=C(N)n2c(s/c(=C\c3cccs3)c2=O)=C(C(=O)OCC)C1c1cccs1` (configuration not stated), the maximum fold increase is reported as “inactive”. With `COc1ccc(-c2cc(-c3ccco3)[nH]c(=O)c2C#N)cc1` the maximum fold increase was “inconclusive”. With `O=C(Nc1ccccc1)Nc1ccc(Br)c(Cl)c1` the maximum fold increase was “inactive”. With `Cn1c(=O)oc2cc(S(=O)(=O)NCc3ccc(C(=O)O)cc3)ccc21` the maximum fold increase was “inconclusive”. For `O=C(CSc1cccc(C(F)(F)F)c1)NC(=O)c1ccccc1`, the maximum fold increase was “inconclusive”. With `Cc1c(C(=O)Cc2ccccc2)n(C)c2ccccc12` the maximum fold increase was “inactive”. With `CCN(CC)c1ccc(/C=C(\C#N)C(N)=S)cc1` the maximum fold increase was “inconclusive”. With `CC(=O)Oc1ccc2c(c1)O/C(=C\c1ccncc1)C2=O` the maximum fold increase was “inconclusive”. In the case of `Cc1cccc(CCNC(=O)C2CCC(=O)N2Cc2ccc(F)cc2)c1` (configuration not stated), the maximum fold increase is reported as “inactive”. In the case of `S=C(Nc1ccc(Oc2ccccc2)cc1)NC1CCCCC1`, the maximum fold increase is reported as “inconclusive”. With `CC(=O)NC(c1ccco1)c1ccc2cccnc2c1O` (configuration not stated) the maximum fold increase was “inactive”. For `CN(C)c1ccc(N/C=C/C(=O)C(C)(C)C)cc1`, the maximum fold increase was “inconclusive”. For `COC(=O)c1cc(OC)c(OC)cc1NCC(=O)Nc1cccc(C(F)(F)F)c1`, the maximum fold increase was “inactive”. For `CCOc1cc(C=C2C(=O)c3ccccc3C2=O)ccc1OCC(=O)Nc1ccc(C)cc1`, the maximum fold increase was “inconclusive”. For `Cn1c(NN)nc2sc3c(c2c1=O)CCC3`, the maximum fold increase was “inconclusive”. With `FC(F)(F)c1nc2cc3nc4ccccc4[nH]c3cc2n1` the maximum fold increase was “inconclusive”. With `C=CCn1c(=N)n(CC(O)c2ccco2)c2ccccc21` (configuration not stated) the maximum fold increase was “inconclusive”. In the case of `CS(=O)(=O)N1CCC(Oc2ccccc2C(=O)NC2CCCCCC2)CC1`, the maximum fold increase is reported as “inactive”.
